Assay results: PubChem BioAssay AID488969 (Vanderbilt High Throughput Screening Facility, 2010)
Whole data set: some 110,000 compounds, median “z-score” near -0.1, cut for the highest 2% near 2. The list shows a part of the results.

The compounds below were run against Metabotropic glutamate receptor 8 (Rattus norvegicus) (UniProt P70579) (assay: rat mGluR8 modulators via GIRK flux, primary screen, cell-based, thallium flux, HTS (AID 488969)). Settings: HEK293 rat mGluR8, GIRK (G protein-gated inwardly rectifying potassium channel) thallium flux, FluoZin2; at 10 µM; stronger effect = higher value; submaximal glutamate (EC20) added with thallium.
UniProt P70579, sequence (P70579 whole entry, looked up): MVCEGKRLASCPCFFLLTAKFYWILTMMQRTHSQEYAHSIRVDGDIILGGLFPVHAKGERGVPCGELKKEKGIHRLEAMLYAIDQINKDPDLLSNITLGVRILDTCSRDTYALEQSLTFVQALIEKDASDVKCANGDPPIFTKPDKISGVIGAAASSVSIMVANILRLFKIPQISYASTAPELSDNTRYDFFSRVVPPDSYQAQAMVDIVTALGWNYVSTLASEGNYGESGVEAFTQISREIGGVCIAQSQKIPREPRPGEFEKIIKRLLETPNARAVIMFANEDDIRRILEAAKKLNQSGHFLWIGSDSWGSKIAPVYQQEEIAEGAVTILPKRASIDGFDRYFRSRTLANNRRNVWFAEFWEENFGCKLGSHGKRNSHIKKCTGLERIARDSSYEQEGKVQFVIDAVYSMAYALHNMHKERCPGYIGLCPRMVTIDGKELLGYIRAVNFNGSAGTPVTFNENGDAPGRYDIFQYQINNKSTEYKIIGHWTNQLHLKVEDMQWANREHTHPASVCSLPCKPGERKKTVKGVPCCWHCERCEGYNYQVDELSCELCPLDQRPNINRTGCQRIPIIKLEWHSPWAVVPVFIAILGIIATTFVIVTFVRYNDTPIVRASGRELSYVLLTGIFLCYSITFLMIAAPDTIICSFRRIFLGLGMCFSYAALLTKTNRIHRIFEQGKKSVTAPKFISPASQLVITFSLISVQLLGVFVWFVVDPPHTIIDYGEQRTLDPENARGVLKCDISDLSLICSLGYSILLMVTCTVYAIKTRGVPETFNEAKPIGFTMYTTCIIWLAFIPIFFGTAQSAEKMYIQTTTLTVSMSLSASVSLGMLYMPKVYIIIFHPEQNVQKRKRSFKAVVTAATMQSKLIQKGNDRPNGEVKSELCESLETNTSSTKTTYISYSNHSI

SMILES | z-score
CCOC(=O)C(Sc1ncn[nH]1)c1ccccc1 (stereo unspecified) | -0.105
CC(C)Cn1c(SC(C)C(=O)Nc2ccc(N3CCOCC3)cc2)nc2ccccc21 (stereo unspecified) | -0.171
O=C(c1ccc(Cn2cc(Br)cn2)cc1)N1CCN(c2ccccc2)CC1 | -0.355
COC(=O)c1ccc(/C=N/OCC(=O)NC2CCCCCCC2)cc1 | -0.201
COc1ccc(CN2CCc3ccccc3C2)c(OC)c1OC | 0.59
CN(C)C(=O)N1CCC(C(=O)NCc2ccc(F)cc2)CC1 | 0.581
Cc1c(NC(C)c2cc(Cl)ccc2O)c(=O)n(-c2ccccc2)n1C (stereo unspecified) | -0.253
O=C(CC1CCCCC1)Nc1ncn[nH]1 | 1.11
CCC(Oc1ccccc1)C(=O)NCc1cccnc1 (stereo unspecified) | 1.55
CCCCSc1nnc(-c2ccccc2)c2ccccc12 | -0.355
CCOc1ccc(N2C(=O)C3Sc4[nH]c(=O)sc4C(/C=C/c4ccccc4)C3C2=O)cc1 (stereo unspecified) | 0.209
CCOc1ccc(NC(=O)Nc2cc(C)on2)cc1 | 0.168
COC(=O)Cn1c(=NC(=O)c2ccc(OC)cc2)sc2cc(OC)ccc21 | -0.189
C=CCn1c(SCC(=O)Nc2nccs2)nnc1-c1cc2cccc(OC)c2o1 | -0.858
CC(Sc1nnc(-c2cc3ccccc3o2)n1-c1ccccc1)C(=O)O (stereo unspecified) | -0.674
Cc1[nH]n(-c2ccccc2)c(=O)c1C(c1ccc(C(=O)O)cc1)c1c(C)[nH]n(-c2ccccc2)c1=O | -0.173

SMILES | z-score
Cc1ccc(-c2n[nH]c(=S)n2/N=C/c2ccc(C)s2)cc1 | 2.29
O=C(COC(=O)c1cnccn1)NCc1ccccc1 | 0.135
CCCCC(=O)N(c1ccc(OC)cc1)C1C=CS(=O)(=O)C1 (stereo unspecified) | 0.251
COc1ccccc1CC(=O)Nc1cc(Cl)ccc1O | -0.628
COc1ccccc1NC(=O)C(C)NS(=O)(=O)c1ccc(Cl)cc1 (stereo unspecified) | -0.0766
Cc1nc2ccccc2nc(C)c1=NOCc1ccccc1Cl | -0.097
CCCCC12CN3CCN(CC(C3)/C1=N\NC(=O)Nc1ccccc1)C2 | 0.454
COc1cc(/C=C/C(=O)NCc2cccnc2)cc(OC)c1OC | 1.92
O=C(CSc1nn(-c2ccccc2)c(=S)s1)NC(=O)NCc1ccco1 | -0.242
CC1=C(C(=O)NCc2ccccc2)C(c2ccccc2OCC(N)=O)NC(=O)N1 (stereo unspecified) | 0.226
COCCNC(=O)CN1C(=O)CC(C)(C)S(=O)(=O)c2ccccc21 | 1.51
Cc1cc(Cl)ccc1NC(=O)CCCN1C(=O)CCC1=O | -0.47
O=C(NCCc1ccc(Cl)cc1)C1CCC(=O)N1Cc1ccccc1Cl (stereo unspecified) | -0.0695
Cc1ccc(/C(N)=N/OC(=O)C23CC4CC(CC(C4)C2)C3)cc1 | -0.54
C=C(C(=O)c1ccccc1)C(C)CC(=O)c1ccccc1 (stereo unspecified) | -0.524
